# The supplement of paper PMC8728848
# The list shows a part of the results.
# How the values were obtained:
# Assay in all cases: glycan array binding signal (z-score within array); higher = stronger binding
# Conditions in all cases: glycan notation: IUPAC condensed, linker removed
# [1] = target: Fuc(a1-2)Gal6S(b1-3)GlcNAc6S
# Summary of the method: (§1)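 Arrays were curated from the Consortium for Functional Glycomics database, 3228 in total, and kept only where the protein sequence was available. Binding is expressed as a within-array Z-score. This score was averaged across arrays of the same protein sequence at different concentrations or buffers and across linkers, and negative values can be read as non-binding.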
# Fuc(a1-2)Gal6S(b1-4)Glc = target: Fuc(a1-2)Gal6S(b1-4)Glc
# Summary of the method: as §1
# [2] = target: Fuc(a1-2)Gal6S(b1-4)Glc6S
# Summary of the method: as §1
# Fuc(a1-2)[Gal(a1-3)]Gal = target: Fuc(a1-2)[Gal(a1-3)]Gal
# Summary of the method: as §1
# [3] = target: Fuc(a1-2)[Gal(a1-3)]Gal(b1-3)GalNAc
# Summary of the method: as §1
# [4] = target: Fuc(a1-2)[Gal(a1-3)]Gal(b1-3)GalNAc(b1-3)Gal(a1-4)Gal(b1-4)Glc
# Summary of the method: as §1
# [5] = target: Fuc(a1-2)[Gal(a1-3)]Gal(b1-3)GlcNAc
# Summary of the method: as §1
# [6] = target: Fuc(a1-2)[Gal(a1-3)]Gal(b1-3)GlcNAc(b1-2)Man(a1-3)[Fuc(a1-2)[Gal(a1-3)]Gal(b1-3)GlcNAc(b1-2)Man(a1-6)]Man(b1-4)GlcNAc(b1-4)GlcNAc
# Summary of the method: as §1
# [7] = target: Fuc(a1-2)[Gal(a1-3)]Gal(b1-3)GlcNAc(b1-2)Man(a1-3)[Fuc(a1-2)[Gal(a1-3)]Gal(b1-3)GlcNAc(b1-2)Man(a1-6)]Man(b1-4)GlcNAc(b1-4)[Fuc(a1-6)]GlcNAc
# Summary of the method: as §1
# [8] = target: Fuc(a1-2)[Gal(a1-3)]Gal(b1-3)GlcNAc(b1-3)GalNAc
# Summary of the method: as §1
# [9] = target: Fuc(a1-2)[Gal(a1-3)]Gal(b1-3)GlcNAc(b1-6)GalNAc
# Summary of the method: as §1
# [10] = target: Fuc(a1-2)[Gal(a1-3)]Gal(b1-4)Glc
# Summary of the method: as §1
# [11] = target: Fuc(a1-2)[Gal(a1-3)]Gal(b1-4)GlcNAc
# Summary of the method: as §1
# [12] = target: Fuc(a1-2)[Gal(a1-3)]Gal(b1-4)GlcNAc(b1-2)Man
# Summary of the method: as §1
# [13] = target: Fuc(a1-2)[Gal(a1-3)]Gal(b1-4)GlcNAc(b1-2)Man(a1-3)[Fuc(a1-2)[Gal(a1-3)]Gal(b1-4)GlcNAc(b1-2)Man(a1-6)]Man(b1-4)GlcNAc(b1-4)GlcNAc
# Summary of the method: as §1
# [14] = target: Fuc(a1-2)[Gal(a1-3)]Gal(b1-4)GlcNAc(b1-2)Man(a1-3)[Fuc(a1-2)[Gal(a1-3)]Gal(b1-4)GlcNAc(b1-2)Man(a1-6)]Man(b1-4)GlcNAc(b1-4)[Fuc(a1-6)]GlcNAc
# Summary of the method: as §1
# [15] = target: Fuc(a1-2)[Gal(a1-3)]Gal(b1-4)GlcNAc(b1-3)GalNAc
# Summary of the method: as §1
# [16] = target: Fuc(a1-2)[Gal(a1-3)]Gal(b1-4)GlcNAc(b1-3)[Fuc(a1-2)[Gal(a1-3)]Gal(b1-4)GlcNAc(b1-6)]GalNAc
# Summary of the method: as §1
# [17] = target: Fuc(a1-2)[Gal(a1-3)]Gal(b1-4)GlcNAc(b1-6)GalNAc
# Summary of the method: as §1
# [18] = target: Fuc(a1-2)[Gal(a1-3)]Gal(b1-4)[Fuc(a1-3)]Glc
# Summary of the method: as §1
# [19] = target: Fuc(a1-2)[Gal(a1-3)]Gal(b1-4)[Fuc(a1-3)]GlcNAc
# Summary of the method: as §1
# [20] = target: Fuc(a1-2)[Gal(a1-3)]Gal(b1-4)[Fuc(a1-3)]GlcNAc(b1-3)GalNAc
# Summary of the method: as §1
# [21] = target: Fuc(a1-2)[Gal(a1-4)]Gal(b1-4)GlcNAc
# Summary of the method: as §1
# [22] = target: Fuc(a1-2)[GalNAc(a1-3)]Gal
# Summary of the method: as §1
# [23] = target: Fuc(a1-2)[GalNAc(a1-3)]Gal(b1-3)GalNAc(a1-3)[Fuc(a1-2)]Gal(b1-4)GlcNAc
# Summary of the method: as §1
# [24] = target: Fuc(a1-2)[GalNAc(a1-3)]Gal(b1-3)GalNAc(b1-3)Gal(a1-4)Gal(b1-4)Glc
# Summary of the method: as §1
# [25] = target: Fuc(a1-2)[GalNAc(a1-3)]Gal(b1-3)GlcNAc
# Summary of the method: as §1
# [26] = target: Fuc(a1-2)[GalNAc(a1-3)]Gal(b1-3)GlcNAc(b1-2)Man(a1-3)[Fuc(a1-2)[GalNAc(a1-3)]Gal(b1-3)GlcNAc(b1-2)Man(a1-6)]Man(b1-4)GlcNAc(b1-4)GlcNAc
# Summary of the method: as §1
# [27] = target: Fuc(a1-2)[GalNAc(a1-3)]Gal(b1-3)GlcNAc(b1-2)Man(a1-3)[Fuc(a1-2)[GalNAc(a1-3)]Gal(b1-3)GlcNAc(b1-2)Man(a1-6)]Man(b1-4)GlcNAc(b1-4)[Fuc(a1-6)]GlcNAc
# Summary of the method: as §1
# [28] = target: Fuc(a1-2)[GalNAc(a1-3)]Gal(b1-3)GlcNAc(b1-3)GalNAc
# Summary of the method: as §1
# [29] = target: Fuc(a1-2)[GalNAc(a1-3)]Gal(b1-3)GlcNAc(b1-6)GalNAc
# Summary of the method: as §1
# [30] = target: Fuc(a1-2)[GalNAc(a1-3)]Gal(b1-4)Glc
# Summary of the method: as §1
# [31] = target: Fuc(a1-2)[GalNAc(a1-3)]Gal(b1-4)GlcNAc
# Summary of the method: as §1
# [32] = target: Fuc(a1-2)[GalNAc(a1-3)]Gal(b1-4)GlcNAc(b1-2)Man
# Summary of the method: as §1
# [33] = target: Fuc(a1-2)[GalNAc(a1-3)]Gal(b1-4)GlcNAc(b1-2)Man(a1-3)[Fuc(a1-2)[GalNAc(a1-3)]Gal(b1-4)GlcNAc(b1-2)Man(a1-6)]Man(b1-4)GlcNAc(b1-4)GlcNAc
# Summary of the method: as §1
# [34] = target: Fuc(a1-2)[GalNAc(a1-3)]Gal(b1-4)GlcNAc(b1-2)Man(a1-3)[Fuc(a1-2)[GalNAc(a1-3)]Gal(b1-4)GlcNAc(b1-2)Man(a1-6)]Man(b1-4)GlcNAc(b1-4)[Fuc(a1-6)]GlcNAc
# Summary of the method: as §1
# [35] = target: Fuc(a1-2)[GalNAc(a1-3)]Gal(b1-4)GlcNAc(b1-3)Gal(b1-4)GlcNAc
# Summary of the method: as §1
# [36] = target: Fuc(a1-2)[GalNAc(a1-3)]Gal(b1-4)GlcNAc(b1-3)Gal(b1-4)GlcNAc(b1-3)Gal(b1-4)GlcNAc
# Summary of the method: as §1
# [37] = target: Fuc(a1-2)[GalNAc(a1-3)]Gal(b1-4)GlcNAc(b1-3)GalNAc
# Summary of the method: as §1
# [38] = target: Fuc(a1-2)[GalNAc(a1-3)]Gal(b1-4)GlcNAc(b1-3)[Fuc(a1-2)[GalNAc(a1-3)]Gal(b1-4)GlcNAc(b1-6)]GalNAc
# Summary of the method: as §1
# [39] = target: Fuc(a1-2)[GalNAc(a1-3)]Gal(b1-4)GlcNAc(b1-6)GalNAc
# Summary of the method: as §1
# [40] = target: Fuc(a1-2)[GalNAc(a1-3)]Gal(b1-4)[Fuc(a1-3)]GlcNAc
# Summary of the method: as §1
# [41] = target: Fuc(a1-2)[GalNAc(a1-3)]Gal(b1-4)[Fuc(a1-3)]GlcNAc(b1-3)GalNAc
# Summary of the method: as §1
# [42] = target: Fuc(a1-2)[GalNAc(a1-4)]Gal(b1-4)GlcNAc
# Summary of the method: as §1
# [43] = target: Fuc(a1-2)[GalNAc(b1-3)]Gal
# Summary of the method: as §1
binder,measurement,setting,value
PX9961U-pdi-543-24-543 (Parabacteroides distasonis) (protein) EEPVGEFLPGQVESEENIEGIVTGAYAVLDGYYASDAINSGCSNWQFGDVVSDDAYKGGGGTGDQNQIHLMEIFNANPTGIDFEARWAALYEGIKRCNQAIRLLNGSEVKNKEQRLAEMRFLRGHYYFNLKIIYNQIPWIDETLVDPNEYNKKSNIEFSSDQLWEKILEEFSAAYKVLPESQADYGRPTKMAARAYMAKVYLYQSKWKECLEACDEVIQSGKYELFPDFRNVFLPENDNCSEIIFAIQLSINDGSPNNENGSYGDRLLPPGGPYPVYGFLRPTQNLVNAYKTDVKGLPYNDGKDVSENDYVDVRLDHTLARPNIPFMDVQLYDWTPREASVYGPYSPKKRLVSLNSTYYSPIWPYVNALNFYVIRYADLLLWRAEAAIETGDLETGRKYINMIRERAKNTQHVKTMDQSQDAANYKVGVYDEPFKSKNEAVQALRMERRLEMAHEGIRFFDLVRWGVADEVINAYIAKEKVFRSHLQNAHFVKGKHEYFPIPQSMIDICGTEVMKQNPGY,glycan array binding signal (z-score),[1],-0.345
same,glycan array binding signal (z-score),Fuc(a1-2)Gal6S(b1-4)Glc,-0.44
same,glycan array binding signal (z-score),[2],-0.226
same,glycan array binding signal (z-score),Fuc(a1-2)[Gal(a1-3)]Gal,-0.405
same,glycan array binding signal (z-score),[3],-0.362
same,glycan array binding signal (z-score),[4],-0.294
same,glycan array binding signal (z-score),[5],-0.384
same,glycan array binding signal (z-score),[6],-0.122
same,glycan array binding signal (z-score),[7],-0.236
same,glycan array binding signal (z-score),[8],-0.33
same,glycan array binding signal (z-score),[9],-0.326
same,glycan array binding signal (z-score),[10],-0.399
same,glycan array binding signal (z-score),[11],-0.433
same,glycan array binding signal (z-score),[12],-0.404
same,glycan array binding signal (z-score),[13],8.53
same,glycan array binding signal (z-score),[14],-0.268
same,glycan array binding signal (z-score),[15],-0.25
same,glycan array binding signal (z-score),[16],-0.047
same,glycan array binding signal (z-score),[17],-0.365
same,glycan array binding signal (z-score),[18],-0.381
same,glycan array binding signal (z-score),[19],-0.345
same,glycan array binding signal (z-score),[20],0.272
same,glycan array binding signal (z-score),[21],-0.379
same,glycan array binding signal (z-score),[22],-0.213
same,glycan array binding signal (z-score),[23],-0.338
same,glycan array binding signal (z-score),[24],-0.424
same,glycan array binding signal (z-score),[25],-0.274
same,glycan array binding signal (z-score),[26],-0.368
same,glycan array binding signal (z-score),[27],-0.351
same,glycan array binding signal (z-score),[28],-0.197
same,glycan array binding signal (z-score),[29],0.015
same,glycan array binding signal (z-score),[30],-0.378
same,glycan array binding signal (z-score),[31],-0.304
same,glycan array binding signal (z-score),[32],-0.331
same,glycan array binding signal (z-score),[33],1.34
same,glycan array binding signal (z-score),[34],1.18
same,glycan array binding signal (z-score),[35],-0.461
same,glycan array binding signal (z-score),[36],0.083
same,glycan array binding signal (z-score),[37],-0.275
same,glycan array binding signal (z-score),[38],-0.413
same,glycan array binding signal (z-score),[39],-0.413
same,glycan array binding signal (z-score),[40],-0.275
same,glycan array binding signal (z-score),[41],2.58
same,glycan array binding signal (z-score),[42],1.52
same,glycan array binding signal (z-score),[43],-0.382
